The other results are listed elsewhere or left out. These are noisy estimates, calculated here from bound and input reads.
What follows are sequences tested against T1, Pho4 (S. cerevisiae) (UniProt P07270) (assay: relative binding free energy (BET-seq); higher = weaker binding). Settings: reference: library average.
T1 sequence: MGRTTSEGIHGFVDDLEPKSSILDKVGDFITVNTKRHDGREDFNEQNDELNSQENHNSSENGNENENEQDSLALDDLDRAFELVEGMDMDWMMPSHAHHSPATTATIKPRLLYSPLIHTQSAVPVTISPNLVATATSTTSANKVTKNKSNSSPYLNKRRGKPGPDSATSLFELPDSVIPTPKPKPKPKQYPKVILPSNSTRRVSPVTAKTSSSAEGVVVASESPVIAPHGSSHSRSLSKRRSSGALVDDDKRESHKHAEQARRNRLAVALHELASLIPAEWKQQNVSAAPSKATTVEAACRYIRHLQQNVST

Row | Sequence | relative binding free energy [kcal/mol]
1 | GGTGCCACGTGAAGGG | 0.14
2 | GCTGTCACGTGGAGTA | 0.13
3 | ATAGGCACGTGATTTT | 0
4 | GATCGCACGTGGGGAG | -0.16
5 | TAGTACACGTGCGTAT | 0.02
6 | AGAGGCACGTGTCTAG | -0.09
7 | TAGTACACGTGGGTGT | -0.22
8 | TTGTGCACGTGTTTCA | 0.01
9 | CTTATCACGTGGGTAG | 0.05
10 | TGGTGCACGTGATCAG | 0
11 | ATGGACACGTGTCGGA | 0.15
12 | CGGGTCACGTGAGAGG | 0.38
13 | GTTAGCACGTGTTAAG | 0.05
14 | GGTGGCACGTGTAAGT | 0.07
15 | TAGTGCACGTGGGTTC | -0.08
16 | GGGTTCACGTGATGCT | 0.43
17 | TAGAGCACGTGAGTAG | 0.11
18 | GATGACACGTGGAGGT | 0.17
19 | CTAAGCACGTGTGGGG | -0.05
20 | GTGAGCACGTGTACGT | 0.09
21 | ATATACACGTGTTTCG | 0.01
22 | TTGGGCACGTGACCGT | -0.13
23 | AAGTTCACGTGGTTGC | 0.28

Row | Sequence | relative binding free energy [kcal/mol]
24 | CGGAACACGTGATTGT | 0.13
25 | GTCGGCACGTGCGTTA | -0.01
26 | TACGTCACGTGGTCGG | -0.12
27 | GATAACACGTGCGTTG | 0.09
28 | TTTCTCACGTGTGCTT | 0.25
29 | TGTAACACGTGCAAGG | 0.08
30 | AGAAGCACGTGGTGCT | -0.11
31 | AGATGCACGTGTGTGC | -0.03
32 | GTTTTCACGTGATTCG | 0.19
33 | GGTTCCACGTGTATGG | 0.16
34 | GTAAACACGTGTTGAT | 0.01
35 | TTAGACACGTGTATAA | 0.1
36 | TGGTGCACGTGCGCGC | -0.11
37 | ATTTTCACGTGAGGGC | 0.38
38 | TTCTGCACGTGGTGCT | -0.16
39 | AAAGGCACGTGTTGTA | -0.1
40 | TGTCGCACGTGGGTAG | -0.34
41 | TTTTGCACGTGCTGGA | 0.04
42 | GCGGGCACGTGGTTGA | -0.18
43 | TTGATCACGTGTGTGA | 0.18
44 | AGGTTCACGTGATCTG | 0.15
45 | ACTGTCACGTGTGGGC | -0.01
46 | GTAGTCACGTGTATGA | 0.03

Row | Sequence | relative binding free energy [kcal/mol]
47 | GGGAGCACGTGTAGGT | -0.05
48 | TTGGACACGTGTCAAG | 0.26
49 | AGTGTCACGTGATTTG | 0.23
50 | TCAGGCACGTGGATGA | -0.04
51 | AGGTTCACGTGGCGTT | 0.15
52 | TTGGGCACGTGGATCT | -0.14
53 | GGCGGCACGTGGTAAT | 0
54 | GTTTACACGTGTTTAT | 0.11
55 | AGAAGCACGTGGGGTG | -0.24
56 | TATAGCACGTGCTGGG | -0.19
57 | TACGACACGTGGGGGA | -0.14
58 | GAGTCCACGTGGTGGG | 0.09
59 | TCATGCACGTGAGGTT | 0.17
60 | AATTTCACGTGGTAGG | 0.37
61 | CGGGGCACGTGCATGT | -0.19
62 | TGTGCCACGTGGTGAG | -0.21
63 | CATGGCACGTGATAGG | 0.03
64 | GAGGGCACGTGTAGGA | -0.07
65 | AGCAGCACGTGTGTTT | -0.02
66 | GTTTACACGTGTGAAT | 0.23
67 | GAAGGCACGTGGACGG | -0.06
68 | ATTATCACGTGGGTTT | 0.01
69 | TTCAGCACGTGTGAAG | 0.02

Row | Sequence | relative binding free energy [kcal/mol]
70 | TTTGACACGTGGTTCT | -0.13
71 | TTATTCACGTGGGAAG | 0.13
72 | TTTTACACGTGATCTT | 0.14
73 | TTCGACACGTGTAGTA | 0.07
74 | TTTAGCACGTGTAGGT | -0.14
75 | TGGGGCACGTGGGATT | -0.11
76 | GGTTACACGTGTATTA | 0.08
77 | GTTTTCACGTGCGGGC | 0.32
78 | GAAGTCACGTGGGCGT | 0.11
79 | TTGTGCACGTGATGGT | 0.14
80 | TTGTACACGTGCTGAA | 0.1
81 | TGTAGCACGTGGATAA | -0.07
82 | CTGAGCACGTGGTGTT | -0.22
83 | TATATCACGTGCTGTA | 0.14
84 | TGGTACACGTGTTTGC | 0.08
85 | TTGGGCACGTGTAGGG | 0.01
86 | TTGCGCACGTGCTTGT | -0.18
87 | GGGGCCACGTGAAGGT | 0.26
88 | TGTGCCACGTGAGTGA | 0.07
89 | TTGTGCACGTGGTTCC | 0.02
90 | AGTGTCACGTGTCATT | 0.08
91 | AGCTGCACGTGGGGAT | -0.06
92 | GTGGTCACGTGTAACA | 0.31

Row | Sequence | relative binding free energy [kcal/mol]
93 | GTTATCACGTGTCTTT | 0.14
94 | GCGTTCACGTGGTTGT | 0.2
95 | TTGCACACGTGAGGAT | 0.29
96 | GAATACACGTGGGAAG | 0.11
97 | AAATGCACGTGTGCGT | -0.05
98 | GTTTCCACGTGGTGTA | -0.08
99 | AACGACACGTGGTTGT | -0.05
100 | GTTTACACGTGGATGA | 0.11
101 | GGATTCACGTGTTCGT | 0.32
102 | TCATGCACGTGTGAGG | 0.11
103 | GCGGTCACGTGGGGGT | 0.04
104 | GTAGGCACGTGTGGGA | 0.03
105 | GGGTCCACGTGATATT | 0.26
106 | TTGAGCACGTGGGCTA | -0.2
107 | CTGGGCACGTGAGGCT | 0
108 | GTCGTCACGTGTTTAT | 0.11
109 | AGTATCACGTGTTCTT | 0.02
110 | CCATGCACGTGTAGGG | -0.01
111 | TTGCTCACGTGAAAGT | 0.35
112 | TTATTCACGTGGAAGC | 0.49
113 | GAAATCACGTGTGTAT | 0.14
114 | GTTGCCACGTGCGGGT | -0.1
115 | ATTAACACGTGGTGTG | -0.09

Reference: the BET-seq Pho4 binding data (Le et al. 2018)
